The source gives no read counts; variants with many changes may rest on few reads.
B1: CPEB3 Ribozyme (parent)
chain: UAACAGGGGGCCACAGCAGAAGCGUUCACGUCGCAGCCCCUGUCAGAUUCUGGUGAAUCUGCGAAUUCUGCUGUAUAUCUC

Variants of: B1
Assay: self-cleavage, relative activity (ratio to wild type); higher = more cleavage; in vitro, sequencing
Procedure, shortened: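 Relative activity compares each variant's cleaved/total read fraction with that of the unmutated ribozyme. To get these fractions, barcoded CPEB3 ribozyme libraries from rounds of error-prone PCR were transcribed with T7 RNA polymerase for 5 hours at 37°C and then given 15 min of DNase I treatment before EDTA was added. The RNAs were reverse transcribed with template switching and sequenced on Illumina, and DNA sequencing linked barcodes to variants. A minimum of 5 reads applied, and three batches were averaged.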

Row | Variant | self-cleavage
1 | A18G C44U G63U A75G | 0.09
2 | A18G G19U C38U A56G A75G | 0.09
3 | A18G G22C A28U U41C A47G U74C | 0.17
4 | A18G G22C U69C C71G U78A | 0.14
5 | A18G G24A A35G A45U U48A A65G U69A | 0.13
6 | A18G G30A C38A A65U | 0.05
7 | A18G G30U G52A A64G | 0.12
8 | A18G G33A A35C U66C U74C | 0.07
9 | A18G G33A A45G U69C | 0.11
10 | A18G G33A A56U U58C U69C | 0.08
11 | A18G G33A G42A C62G | 0.13
12 | A18G G33A U60A A77U | 0.1
13 | A18G G33A U60C U69C U80G | 0.04
14 | A18G G36A U43C U49C A57G U58C U72A | 0.08
15 | A18G G36A U60C U72C | 0.06
16 | A18G G36C U48C | 0.05
17 | A18G G42A A64G U80C | 0.3
18 | A18G G46A A57G | 0
19 | A18G G46U A65G | 0.11
20 | A18G G61A C68A U76A | 0.23
21 | A18G U25A A28G C29A C40U U76C | 0.21
22 | A18G U25A C32U U48C | 0.2
23 | A18G U25A U31A G52A A56G U60A U72C | 0.08
24 | A18G U25A U76A A77G | 0.21

Row | Variant | self-cleavage
25 | A18G U25A U76C | 0.26
26 | A18G U25C A35G A64U A75G A77G | 0.02
27 | A18G U25C A47G A64U U67C U72C | 0.23
28 | A18G U25C A64C U72C | 0.07
29 | A18G U25C C29U G33U A56G | 0.15
30 | A18G U25C C38U A56G | 0.19
31 | A18G U25C C39A C50U U60C | 0.09
32 | A18G U25C U31C U78A | 0.22
33 | A18G U25C U43C U69A A75G | 0.26
34 | A18G U25C U54A A64G | 0.17
35 | A18G U25C U78C | 0.16
36 | A18G U26A A28G U41A A45U U49A U66C | 0.14
37 | A18G U26A A35G U54C U60A | 0.37
38 | A18G U26A C34U U43C A64U U78C | 0.05
39 | A18G U26A G42A A47U | 0.04
40 | A18G U26A U31C A35U | 0.17
41 | A18G U26A U60A G63A | 0.16
42 | A18G U26A U69A | 0.49
43 | A18G U26C A28G A45U U49A U54C | 0.05
44 | A18G U26C A28G C50A | 0.02
45 | A18G U26C A28U A45U A64G U66C | 0.42
46 | A18G U26C A35G U41C A64G U66C | 0.15
47 | A18G U26C C71A | 0.1
48 | A18G U26C G30A G52U U76C | 0.22

Row | Variant | self-cleavage
49 | A18G U26C G33A U43A | 0.22
50 | A18G U26C G36A U43C A57G U58C U66C | 0.04
51 | A18G U26C U31A C44U A45G C81U | 0.03
52 | A18G U26C U31C | 0.12
53 | A18G U26C U31C U72G U78C | 0.06
54 | A18G U26C U41C U51A | 0.12
55 | A18G U26C U54C U78C | 0.07
56 | A18G U31A A45G | 0.39
57 | A18G U31A A45G U51A | 0.23
58 | A18G U31A A45U U80A | 0.18
59 | A18G U31A C39A G55A U60C U78C | 0.07
60 | A18G U31A U41A U69A | 0.06
61 | A18G U31A U76C | 0.13
62 | A18G U31C A35U U43A U54A | 0.21
63 | A18G U31C A45U U48C U78A C79A | 0.04
64 | A18G U31C A56G A65G U67C U74C A77G | 0.11
65 | A18G U31C C40A A45C A56U | 0.11
66 | A18G U31C C50U | 0.18
67 | A18G U31C G33A | 0.05
68 | A18G U31C U41A U66C | 0.06
69 | A18G U31C U41C U78A | 0.14
70 | A18G U31C U49C U58C | 0.07
71 | A18G U31C U60C | 0.05
72 | A18G U41A A64U | 0.25

Row | Variant | self-cleavage
73 | A18G U41A G46A U60C A77G | 0.14
74 | A18G U41A U43C U49C U80C | 0.08
75 | A18G U41A U48C U78C | 0.18
76 | A18G U41A U49C U51C U54C U60A U72C | 0.23
77 | A18G U41A U72C | 0.42
78 | A18G U41C A45G | 0.41
79 | A18G U41C A47G G52A U66A | 0.39
80 | A18G U41C A47G U48C | 0.11
81 | A18G U41C A56C | 0.25
82 | A18G U41C U51A | 0.59
83 | A18G U41C U60C | 0.21
84 | A18G U43A A57G U58C A64G U76C | 0.18
85 | A18G U43A A65G U72A U78C | 0.36
86 | A18G U43A A77U | 0.93
87 | A18G U43A U51C U72C | 0.64
88 | A18G U43A U69C | 1.22
89 | A18G U43C A56G | 0.25
90 | A18G U43C C62G U69G | 0.14
91 | A18G U43C U49C | 0.16
92 | A18G U43C U54G | 0.47
93 | A18G U43G A45G U76C | 0.2
94 | A18G U43G U54A | 0.27
95 | A18G U48C U51A A57G U72C | 0.49
96 | A18G U48C U51G A77U | 0.48

Row | Variant | self-cleavage
97 | A18G U48C U67A G70A U72C U78C | 0.14
98 | A18G U48C U72A | 0.17
99 | A18G U49G U60C U76C U78C | 0.11
100 | A18G U51A A56G | 0.25
101 | A18G U51A A64G U72C | 0.33
102 | A18G U51A U60A | 0.07
103 | A18G U51A U69C | 1.21
104 | A18G U51G G55A | 0.3
105 | A18G U54C A56G U78C | 0.2
106 | A18G U54C A64G | 0.52
107 | A18G U54C U60A C71A A77G | 0.22
108 | A18G U54C U72A | 0.35
109 | A18G U58C U67C | 0.18
110 | A18G U60C A64G | 0.17
111 | A18G U60C A65G | 0.27
112 | A18G U60C A77G | 0.19
113 | A18G U60C C68U U80G | 0.15
114 | A18G U66G A75G | 0.2
115 | A18G U72A C81U | 0.32
116 | A18G U74C U76C | 1.17
117 | A18G U74G A75G | 0.84
118 | A18U A20C U51C U66C | 0.3
119 | A18U A20G A21G U49C | 0.39
120 | A18U A20G A28G | 0.56

Row | Variant | self-cleavage
121 | A18U A20G A35G A45U U72C | 0.15
122 | A18U A20G A45C U60C U78C | 0.07
123 | A18U A20G A45G U48C U58A | 0.07
124 | A18U A20G C23U A35U U51G U72G | 0.08
125 | A18U A20G C40A A56G A57U A65G U72A | 0.05
126 | A18U A20G G42C | 0.09
127 | A18U A20G U25C A45G U67C G73U | 0.03
128 | A18U A20G U26C U54C U72C | 0.08
129 | A18U A20G U74A | 0.52
130 | A18U A20G U76C | 0.49
131 | A18U A20U A56G | 0.12
132 | A18U A20U C32U A56G | 0.14
133 | A18U A20U U26C A35G U69C | 0.08
134 | A18U A20U U41C U48G U49C | 0.4
135 | A18U A20U U74C | 0.22
136 | A18U A21G C39U A57G | 0.1
137 | A18U A21G C40G A64G | 0.05
138 | A18U A21G C62U | 0.07
139 | A18U A21G U66C | 0.26
140 | A18U A21G U76A | 0.26
141 | A18U A21U U26C U78A | 0.25
142 | A18U A28G A35G A45G U67C | 0.07
143 | A18U A28G C39U U49C | 0.06
144 | A18U A28G G33A A57U U67C | 0.11

Row | Variant | self-cleavage
145 | A18U A28G U41A | 0.06
146 | A18U A28G U43A A57U | 0.23
147 | A18U A28G U43C U48C C50A | 0.17
148 | A18U A28G U66A | 0.14
149 | A18U A28G U66C U76C C79G | 0.17
150 | A18U A28G U72A | 0.19
151 | A18U A28U U48C U54C G73C | 0.1
152 | A18U A28U U67A | 0.15
153 | A18U A35G A47G C62G | 0.2
154 | A18U A35G C37A G61A U80C | 0.3
155 | A18U A35G U54C C59G A65G U66C | 0.25
156 | A18U A35G U60A | 0.35
157 | A18U A35G U60C U66C | 0.17
158 | A18U A35U A64G | 0.09
159 | A18U A45G A47U U60C | 0.09
160 | A18U A45G A56G C71U | 0.07
161 | A18U A45G A56U A57G | 0.06
162 | A18U A45G A65G U66C U72A | 0.22
163 | A18U A45G C62U U72A U80C | 0.22
164 | A18U A45G G61A A75G | 0.11
165 | A18U A45U U58A | 0.14
166 | A18U A47G C62U | 0.29
167 | A18U A47G U60C G63U U69C U80C | 0.12

Reference: the RNAGym collection of RNA variant scans (doi:10.1093/nar/gkz1192)
